# Laboratory results: publication PMC4336329 (PLoS ONE, 2015)
# In all, about 310,000 compounds went through this assay and about 14,000 (4.5%) showed an effect of 50% or more. The effect is printed as a negative number. Some of the results follow.
# Target: human ether-à-go-go-related gene (hERG) potassium channel (human, UniProt Q12809)
# Assay: primary screen, population patch clamp on CHO cells stably expressing hERG
# 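Note: peak tail current of the secondary pulse compared with the same well before compound.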
# Chain of human ether-à-go-go-related gene (hERG) potassium channel (Q12809 whole entry, looked up): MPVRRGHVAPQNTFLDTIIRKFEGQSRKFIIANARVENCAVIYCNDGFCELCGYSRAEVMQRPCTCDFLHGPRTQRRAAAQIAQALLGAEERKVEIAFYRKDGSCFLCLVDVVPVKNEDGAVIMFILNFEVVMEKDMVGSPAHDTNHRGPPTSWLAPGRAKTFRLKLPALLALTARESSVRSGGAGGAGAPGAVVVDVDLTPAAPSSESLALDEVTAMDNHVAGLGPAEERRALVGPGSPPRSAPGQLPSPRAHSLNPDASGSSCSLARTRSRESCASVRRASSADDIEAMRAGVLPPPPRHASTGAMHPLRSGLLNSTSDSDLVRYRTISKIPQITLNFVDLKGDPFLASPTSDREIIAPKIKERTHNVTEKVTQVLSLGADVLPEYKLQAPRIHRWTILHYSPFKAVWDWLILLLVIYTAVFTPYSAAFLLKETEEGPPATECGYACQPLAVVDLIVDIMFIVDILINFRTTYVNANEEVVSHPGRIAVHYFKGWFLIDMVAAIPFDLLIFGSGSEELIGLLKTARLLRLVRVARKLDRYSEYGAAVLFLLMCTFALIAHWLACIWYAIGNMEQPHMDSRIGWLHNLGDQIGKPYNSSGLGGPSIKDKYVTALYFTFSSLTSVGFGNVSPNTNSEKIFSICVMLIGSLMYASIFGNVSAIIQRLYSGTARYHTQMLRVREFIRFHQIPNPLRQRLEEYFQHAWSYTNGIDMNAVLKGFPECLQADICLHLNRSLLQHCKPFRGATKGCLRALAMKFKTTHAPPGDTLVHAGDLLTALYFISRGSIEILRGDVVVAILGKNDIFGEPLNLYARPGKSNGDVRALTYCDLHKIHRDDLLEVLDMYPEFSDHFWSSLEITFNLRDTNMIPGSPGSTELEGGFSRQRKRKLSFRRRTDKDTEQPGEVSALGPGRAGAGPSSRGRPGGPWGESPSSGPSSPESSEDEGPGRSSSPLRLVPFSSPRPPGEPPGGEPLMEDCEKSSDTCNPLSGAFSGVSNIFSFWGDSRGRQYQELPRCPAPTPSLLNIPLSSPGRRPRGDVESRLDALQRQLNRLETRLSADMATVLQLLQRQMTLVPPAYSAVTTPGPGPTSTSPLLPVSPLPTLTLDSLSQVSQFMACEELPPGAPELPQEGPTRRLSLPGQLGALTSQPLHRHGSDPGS
row,Compound,"hERG current change (%, negative = inhibition) at 10uM [%]"
1,O=C(CNC(=S)N(CCCN1CCOCC1)Cc1cccs1)N1CCOCC1,-9.74
2,COc1ccc(C2=NCC(=O)N(CC(=O)NCc3ccco3)c3sc4c(c32)CCCC4)cc1,-35.7
3,COc1ccc2c(c1OC)c(=O)n1c3ccc(OC(C)C(=O)NCCCN4CCOCC4)cc3c3ccnc2c31 (stereo not drawn),10.4
4,CCOC(=O)C1=C(C)C(c2ccc(OC)cc2OC)NC(=O)N1 (stereo not drawn),6.42
5,CCn1c(CC(=O)Nc2ccccc2Cl)nnc1SCC(=O)NC1CCCC1,4.47
6,CCCCn1c(N)c(N(CCOC)C(=O)COC(=O)COc2ccccc2C#N)c(=O)[nH]c1=O,-2.37
7,CC(C)N1C(=O)CCC1C(=O)N1CCC2(CC1)OCCO2 (stereo not drawn),-0.0126
8,Cc1cc(NC(=O)Nc2ccc(Cl)cc2)n(C)n1,5.81
9,O=C(NNS(=O)(=O)c1ccccc1F)c1ccccc1-n1cccc1,9.46
10,CCCC(C)NC(=O)C1CCN(S(=O)(=O)c2ccccc2)CC1 (stereo not drawn),-12
11,Cn1c(=O)c2c(nc(N3CCOCC3)n2Cc2c(F)cccc2Cl)n(C)c1=O,0.434
12,Cc1ccc(C)c(N(Cc2cc3ccc(C)cc3[nH]c2=O)C(=O)c2ccco2)c1,-15.4
13,COc1c(Cl)ccc(Cl)c1C(=O)NC(=O)N1CCOCC1,-15.7
14,Cc1ccc(-n2cc(CNC(C)c3cnn(C)c3)c(-c3ccc(F)cc3)n2)cc1 (stereo not drawn),-40
15,COc1ccc(/C=N/OCc2ccc(Br)cc2)c(OC)c1,13.8
16,CN(C(=O)c1cc(-c2ccc3c(c2)OCO3)on1)c1ccccc1,1.76
17,CCNC(=O)CCSc1nc(C)cc(C)n1,3.55
18,COc1ccccc1CN(C)C(=O)c1cc(C)nc2ccccc12,-65.1
19,COc1cc(/C=C/C(=O)NCC2CCCCC2)cc(OC)c1OC,23.6
20,CCn1nnnc1-c1ccc(OC)c(S(=O)(=O)Nc2ccc(C)c(C)c2)c1,-2.9
21,O=C(Nc1nnc(Cc2ccc(Cl)cc2)s1)c1ccco1,4.13
22,O=C1C(=O)N(c2cccc(Cl)c2)C(c2ccccc2[N+](=O)[O-])/C1=C(\O)c1ccccc1 (stereo not drawn),5.26
23,Cc1ccc(C(=O)NCCc2nnc3ccc(SCC(=O)Nc4ccc(C)cc4C)nn23)cc1,-17.5
24,O=C(NCCNC1CCN(Cc2ccccc2)CC1)c1cccs1,-15.2
